Assay results reported in patent US20160237160A1, “ANTI-TWEAKR ANTIBODIES AND USES THEREOF” (BAYER PHARMA AKTIENGESELLSCHAFT, priority 2013, published 2016).
Marks after values point to notes of the source that are not given here.

Legend:
Test in all cases: Xenograft anti-tumor efficacy
Assay type in all cases: in vivo, mice
[1] = test system: 786-O xenograft (renal cell cancer); details: based on measurement of tumor area (*)
Procedure: (§1) Tumor cell lines were cultivated as described in the parts above and 100 μl containing cell line specific numbers of tumor cells inoculated subcutaneously (s.c.) into female athymic nude mice (NMRI nu/nu, 6-8 weeks, 20-25 g, Taconic). Mice were housed under standardized pathogen free conditions and treated according to the animal welfare guidelines.
(§2) After tumor growth to a size of approximately 40 mm^2 mice were randomized into control and treatment groups with a respective group size of n=8-10. Mice were treated with various doses of anti-TWEAKR antibodies diluted in PBS by intravenous injection (i.v.) into the tail vein with a twice per week schedule (q4dx3: applications twice per week, three applications in total; q4dx8: applications twice per week, eight applications in total). Combination therapy partners such as Regorafenib (10 mg/kg daily, per os) and the PI3K-inhibitor 1 (10 mg/kg, BID, 2d on, 5d off (applications twice daily on two consecutive days, followed by five days without treatment), i.v.) were diluted in their respective formulations whereas the standard of care therapies Irinotecan (5 mg/kg, 4d on, 3d off (applications once daily on four consecutive days followed by three days without treatment) i.v.) and Paclitaxel (16 mg/kg, q7dx4 (applications once per week, four applications in total), i.v.) were diluted in 0.9% NaCl. Animals injected with PBS served as the control (vehicle) group. The applied volume of the compounds was 5 ml/kg body weight per mouse.
(§3) Tumor growth was monitored 2-3 times per week by caliper measurement (length×width in mm) as well as body weight (in g). At the end of study tumors were dissected, weighted and used for the calculation of tumor-to-control (T/C) ratios (mean tumor weight of treated animals divided by mean tumor weight of control/vehicle animals). […] 2×10^6 tumor cells in 100% Matrigel were s.c. inoculated in female nude mice. After 7d established tumors with a size of about 40 mm^2 were treated with 0.3 mg/kg, 1 mg/kg and 3 mg/kg of antibodies (i.v., q4dx3: applications twice per week, three applications in total).

[2] = test system: A253 xenograft (salivary gland cancer); details: based on measurement of tumor area (*)
Procedure: as §1, §2, §3

[3] = test system: MDA-MB-231 xenograft (breast cancer); details: based on final tumor weight after dissection
Procedure: as §1, §2, §3

[4] = test system: SK-OV-3 xenograft (ovarian cancer); details: based on measurement of tumor area (*)
Procedure: as §1, §2, §3

B1: TPP-1538: anti-TWEAKR human IgG1; heavy chain SEQ ID NO: 62, light chain SEQ ID NO: 61 (antibody, listed as Homo Sapiens)
heavy: EVQLLESGGGLVQPGGSLRLSCAASGFTFSPYPMMWVRQAPGKGLEWVSYISPSGGKTHYADSVKGRFTISRDNSKNTLYLQMNSLRAEDTAVYYCARGGDTYFDYFDYWGQGTLVTVSS[human IgG1 constant region not shown]
light: AQDIQMTQSPATLSASVGDRVTITCRASQSISSYLNWYQQKPGKAPKLLIYAASSLQSGVPSRFSGSGSGTDFTLTISSLQPEDFATYYCQQSYSSPGITFGPGTKVEIKRTVAAPSVFIFPPSDEQLKSGTASVVCLLNNFYPREAKVQWKVDNALQSGNSQESVTEQDSKDSTYSLSSTLTLSKADYEKHKLYACEVTHQGLSSPVTKSFNRGEC
[1]
  Final T/C: 0.57*
[2]
  Final T/C: 0.43*
[3]
  Final T/C: 0.91
[4]
  Final T/C: 0.55*
